Measured values from paper PMC6919601, “Identification of Plasmodium dipeptidyl aminopeptidase allosteric inhibitors by high throughput screening” (PLoS ONE, 2019).
In all, about 110,000 compounds went through this assay and about 230 (0.21%) showed an effect of 50% or more. This is one part of the list.

What follows are compounds tested against DPAP1 (Plasmodium falciparum, UniProt Q8IIJ9) (assay: primary screen, percent inhibition; read by cleavage of a fluorogenic dipeptide substrate; higher = more effect of the substance).
Design: species or system P. falciparum D10 trophozoite lysates; single well
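Also: 30 min substrate incubation versus DMSO and 10 µM JCP410 controls.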

DPAP1, sequence (Q8IIJ9 whole entry, looked up): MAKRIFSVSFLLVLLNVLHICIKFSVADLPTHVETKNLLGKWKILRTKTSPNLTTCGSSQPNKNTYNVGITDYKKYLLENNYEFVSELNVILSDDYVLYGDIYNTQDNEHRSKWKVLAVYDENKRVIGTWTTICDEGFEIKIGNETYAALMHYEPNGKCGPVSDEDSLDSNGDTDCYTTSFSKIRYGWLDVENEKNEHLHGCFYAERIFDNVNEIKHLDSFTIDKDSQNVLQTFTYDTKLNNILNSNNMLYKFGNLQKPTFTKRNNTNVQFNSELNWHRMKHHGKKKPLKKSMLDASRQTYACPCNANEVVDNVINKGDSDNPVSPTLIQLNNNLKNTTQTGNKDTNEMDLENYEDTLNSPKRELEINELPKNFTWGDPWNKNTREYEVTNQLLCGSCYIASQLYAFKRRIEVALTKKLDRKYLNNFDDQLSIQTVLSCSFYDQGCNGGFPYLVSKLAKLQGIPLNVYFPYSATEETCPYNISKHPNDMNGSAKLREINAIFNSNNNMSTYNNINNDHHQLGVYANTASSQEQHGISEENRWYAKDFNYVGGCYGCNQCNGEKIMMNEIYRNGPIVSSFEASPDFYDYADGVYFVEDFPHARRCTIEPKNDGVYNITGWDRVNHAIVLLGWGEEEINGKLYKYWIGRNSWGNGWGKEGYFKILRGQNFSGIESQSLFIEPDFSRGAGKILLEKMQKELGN

In order of falling “% Inhibition @ 10 uM” value:
1. CC(NC(=O)C12CC3CC(C1)CC(n1cncn1)(C3)C2)C12CC3CC(CC(C3)C1)C2 (stereo not drawn)  43.3%
2. CCOc1ccc(CCNC(=O)Cn2sc3nc(C)cc(C)c3c2=O)cc1  18.9%
3. Cc1ccc(Cn2cc(CCCC(=O)N3CCOCC3)c3ccccc32)cc1  11%
4. O=C1NC(=S)S/C1=C\c1ccc(-c2cc(Cl)ccc2Cl)o1  7.31%
5. CCOc1ccc(CCNC(=O)CCc2c(C)nc3c4c(C)cc(C)nc4nn3c2C)cc1OCC  7.05%
6. O=C(CCc1nc(-c2ccccc2F)no1)NCCN1CCOCC1  6.64%
7. CCOc1cccc2cc(C(=O)Nc3nccs3)c(=O)oc12  6.56%
8. COc1ccc(-c2cn3cccc(C)c3n2)cc1Br  5.37%
9. CC(C)c1ccc(NC(=O)C2CCCN2S(=O)(=O)c2ccc(Cl)cc2)cc1 (stereo not drawn)  5.17%
10. CCN(CC)c1ccc(NC(=O)c2ccc(Br)cc2)cc1  5.15%
11. O=[N+]([O-])c1ccc(Cl)c(CN2CCc3ccccc3C2)c1  4.73%
12. CC(=O)Nc1ccc(OC(C)C)cc1  4.65%
13. CCOc1ccc2nc(NC(=O)CCCCC(=O)O)sc2c1  4.55%
14. COc1ccc(CCN2C(=O)C(O)=C(C(=O)c3ccco3)C2c2cccs2)cc1OC (stereo not drawn)  4.44%
15. CC(=O)N1N=C(c2ccccc2)CC1c1ccc(Cl)cc1Cl (stereo not drawn)  3.74%
16. Cc1ccc(-c2nnc(N3CCOCC3)c3ccccc23)cc1S(=O)(=O)NC(C)(C)CO  3.59%
17. CCc1nc2nc(C)c(NS(=O)(=O)c3ccc(C4CCCCC4)cc3)c(O)n2n1  3.5%
18. CCOc1ccccc1C1/C(=C(\O)OC2CCCCC2)C(C)=Nc2ncnn21 (stereo not drawn)  2.97%
19. CC(C)C[C@H](NC(=O)c1ccc(-c2ccccc2)nc1)C(=O)NCC#N  2.87%
20. CC(C)(C)c1ccc(OCCCCCN2CCNCC2)cc1  2.54%
21. Cc1noc2c1C(c1ccsc1)C(C#N)=C(N)N2 (stereo not drawn)  2.32%
22. COc1ccccc1-n1c(CNC(=O)c2cccc(C)c2)nnc1SCC(=O)Nc1nccs1  2.12%
23. O=C(C1CC2CCC1C2)N1CCN(c2cccc(Cl)c2)CC1 (stereo not drawn)  2.05%
24. CCSC1=C(C#N)C(c2ccccc2OC)C(C(=O)OC)C(=O)N1 (stereo not drawn)  2.05%
25. CCNC(=O)CN(Cc1ccc(Br)cc1)S(=O)(=O)c1ccc(Cl)cc1  1.8%
26. CCOC(=O)c1c(NC(C)=O)sc2c1CCC2  1.74%
27. CCCC1=NCCn2cccc21  1.54%
28. COc1ccc(C2C(=O)N(C3CCCCC3)CC(=O)N2Cc2ccc(C)cc2)cc1 (stereo not drawn)  1.27%
29. COc1ccc(C2CC(=O)C(/C=N/Cc3ccc(Cl)c(Cl)c3)=C(O)C2)cc1 (stereo not drawn)  0.851%
30. O=C(NCc1ccccc1)N1CCC(CN2CCCCC2)CC1  0.66%
31. Nc1ccc2[nH]c(-c3ccc(-c4nc5cc(N)ccc5o4)cc3)nc2c1  0.361%
32. CC1(C)COC(c2cccc(C3=NC(C)(C)CO3)n2)=N1  0.324%
33. COc1ccc(-c2cc(C)no2)cc1S(=O)(=O)NC1CCCc2ccccc21 (stereo not drawn)  0.098%
34. c1ccc2c(Cn3ccnc3)c[nH]c2c1  -0.0404%
35. CCOC(=O)N1CCC(NCc2ccco2)CC1  -0.0953%
36. Cc1cc(-c2[nH]nc3c2C(c2c[nH]c4ccccc24)C(C#N)=C(N)O3)c(C)s1 (stereo not drawn)  -0.105%
37. COc1cc(OC)cc(-c2cc3nc(C)c(CCC(=O)NCc4ccc(F)cc4)c(C)n3n2)c1  -0.465%
38. CCOc1ccc(-n2c(C)nnc2SCc2nc(-c3ccc(Cl)cc3)no2)cc1  -0.666%
39. Cc1[nH]nc2c1C(c1cccc(OCc3ccc(F)cc3)c1)C(C#N)=C(N)O2 (stereo not drawn)  -0.68%
40. Cc1cc(N2CCOCC2)c(F)cc1C(=O)c1ccccc1  -0.711%
41. N#Cc1nc(/C=C/c2ccc(F)cc2)oc1NCC1CCCO1 (stereo not drawn)  -0.808%
42. Cc1ccc2nc(N3CCNCC3)c(-n3nc(C)cc3C)nc2c1  -0.92%
43. CC(C)COc1cccc(-c2cc(C(=O)Nc3ccon3)c3ccccc3n2)c1  -1.1%
44. C#CCOc1c(Br)cc(/C=C2/NC(=O)N(Cc3ccccc3F)C2=O)cc1OC  -1.81%
45. Cc1ccc(-c2nc(CS(=O)(=O)CC(=O)N3CC(C)CC(C)C3)c(C)o2)cc1 (stereo not drawn)  -1.89%
46. Cc1ccc(C)c(NC(=O)C23CCC(C)(C(=O)C2=O)C3(C)C)c1 (stereo not drawn)  -2.84%
47. COc1ccc(C(=O)Nc2nc(-c3ccc(Cl)cc3)cs2)c(OC)c1  -3.26%
48. COc1ccc2[nH]cc(CCNC(N)=O)c2c1  -3.65%
49. Cc1ccc(CNC(=O)CSc2nc3nccnc3c(=O)n2CCCOC(C)C)cc1  -3.73%
50. CC(=O)c1cccc(NC(=O)C23CCC(C)(c4nc5ccccc5nc42)C3(C)C)c1 (stereo not drawn)  -4.22%
51. CCN(CC)c1ccc2c(C)c([N+](=O)[O-])c(=O)oc2c1  -4.31%
52. CCOc1ccc(/C=C2\N=C(c3ccc(Cl)c(Cl)c3)OC2=O)cc1  -4.5%
53. CN(C)CCN(C)Cc1cccnc1  -4.58%
54. O=C(CN1N=C(c2ccccc2)CCC1=O)NCCCN1CCCCCC1  -4.83%
55. Cc1[nH]c2ccccc2c1/C=C1\SC(=N)N(c2nccs2)C1=O  -4.91%
56. CCOc1ccc(NC(=O)C(C)Oc2ccccc2)cc1 (stereo not drawn)  -5%
57. O=C(NCc1cccnc1)c1cc(S(=O)(=O)N2CCCCC2)c[nH]1  -5.3%
58. CCCC(=O)N1CC2(c3ccccc3)CN(C(=O)CCC)CC(c3ccccc3)(C1)C2=O  -5.33%
59. O=C1NCCN/C1=C\C(=O)c1ccc(Cl)cc1  -6.29%
60. COc1ccccc1C(=O)Nc1ccc2nn(-c3ccc(N(C)C)cc3)nc2c1  -6.67%
61. CCOC(=O)N1CCN(C(=O)CSc2nnc(Cc3cccn3C)n2-c2ccc(F)cc2)CC1  -7.65%
62. COc1cccc(C2C(C#N)=C(N)N(c3c(F)cccc3F)C3=C2C(=O)CCC3)c1 (stereo not drawn)  -8.72%
63. Cc1ccc(CC(=O)Nc2nnc(Cc3ccc(Cl)cc3)s2)cc1  -8.79%
